Drawing on PMC9911399, “Two distinct binding modes provide the RNA-binding protein RbFox with extraordinary sequence specificity”, this text covers binding signal for 20 molecules.

Sequences and labels used below:
B1: UGAUCGA (DNA:RNA)
RNA: GGGAGACCGGAAUUCAGAUUGUCCUGAUCGAUUAAAUCCCGUCGUAGCCACCA
DNA 1: CAATCTGAATTCCGGTCTCCC
DNA 2: TGGTGGCTACGACGGGATT
B2: GCCUAAA (DNA:RNA)
RNA: B1 RNA with U25G, G26C, A27C, C29A, G30A
DNA 1: CAATCTGAATTCCGGTCTCCC
DNA 2: TGGTGGCTACGACGGGATT
B3: UUUCGCC (DNA:RNA)
RNA: B1 RNA with G26U, A27U, U28C, C29G, G30C, A31C
DNA 1: CAATCTGAATTCCGGTCTCCC
DNA 2: TGGTGGCTACGACGGGATT
B4: UAGUAAA (DNA:RNA)
RNA: B1 RNA with G26A, A27G, C29A, G30A
DNA 1: CAATCTGAATTCCGGTCTCCC
DNA 2: TGGTGGCTACGACGGGATT
B5: AACCCCC (DNA:RNA)
RNA: B1 RNA with U25A, G26A, A27C, U28C, G30C, A31C
DNA 1: CAATCTGAATTCCGGTCTCCC
DNA 2: TGGTGGCTACGACGGGATT
B6: UUUCCAG (DNA:RNA)
RNA: B1 RNA with G26U, A27U, U28C, G30A, A31G
DNA 1: CAATCTGAATTCCGGTCTCCC
DNA 2: TGGTGGCTACGACGGGATT
B7: GCGGUAA (DNA:RNA)
RNA: B1 RNA with U25G, G26C, A27G, U28G, C29U, G30A
DNA 1: CAATCTGAATTCCGGTCTCCC
DNA 2: TGGTGGCTACGACGGGATT
B8: GCUAGCA (DNA:RNA)
RNA: B1 RNA with U25G, G26C, A27U, U28A, C29G, G30C
DNA 1: CAATCTGAATTCCGGTCTCCC
DNA 2: TGGTGGCTACGACGGGATT
B9: CCACUUG (DNA:RNA)
RNA: B1 RNA with U25C, G26C, U28C, C29U, G30U, A31G
DNA 1: CAATCTGAATTCCGGTCTCCC
DNA 2: TGGTGGCTACGACGGGATT
B10: GUAGGGU (DNA:RNA)
RNA: B1 RNA with U25G, G26U, U28G, C29G, A31U
DNA 1: CAATCTGAATTCCGGTCTCCC
DNA 2: TGGTGGCTACGACGGGATT
B11: GACAAUG (DNA:RNA)
RNA: GGGAGACCGGAAUUCAGAUUGUCCGACAAUGUUAAAUCCCGUCGUAGCCACCA
DNA 1: CAATCTGAATTCCGGTCTCCC
DNA 2: TGGTGGCTACGACGGGATT
B12: UUGGUGC (DNA:RNA)
RNA: B1 RNA with G26U, A27G, U28G, C29U, A31C
DNA 1: CAATCTGAATTCCGGTCTCCC
DNA 2: TGGTGGCTACGACGGGATT
B13: ACUCGCU (DNA:RNA)
RNA: GGGAGACCGGAAUUCAGAUUGUCCACUCGCUUUAAAUCCCGUCGUAGCCACCA
DNA 1: CAATCTGAATTCCGGTCTCCC
DNA 2: TGGTGGCTACGACGGGATT
B14: AUGCAGC (DNA:RNA)
RNA: B13 RNA with C26U, U27G, G29A, C30G, U31C
DNA 1: CAATCTGAATTCCGGTCTCCC
DNA 2: TGGTGGCTACGACGGGATT
B15: UUAGAUC (DNA:RNA)
RNA: B11 RNA with G25U, A26U, C27A, A28G, G31C
DNA 1: CAATCTGAATTCCGGTCTCCC
DNA 2: TGGTGGCTACGACGGGATT
B16: UCCAAUA (DNA:RNA)
RNA: B11 RNA with G25U, A26C, G31A
DNA 1: CAATCTGAATTCCGGTCTCCC
DNA 2: TGGTGGCTACGACGGGATT
B17: CUUAUAU (DNA:RNA)
RNA: B13 RNA with A25C, C26U, C28A, G29U, C30A
DNA 1: CAATCTGAATTCCGGTCTCCC
DNA 2: TGGTGGCTACGACGGGATT
B18: CGCGAUA (DNA:RNA)
RNA: B11 RNA with G25C, A26G, A28G, G31A
DNA 1: CAATCTGAATTCCGGTCTCCC
DNA 2: TGGTGGCTACGACGGGATT
B19: CCGAGGC (DNA:RNA)
RNA: B13 RNA with A25C, U27G, C28A, C30G, U31C
DNA 1: CAATCTGAATTCCGGTCTCCC
DNA 2: TGGTGGCTACGACGGGATT
B20: UGCUGAU (DNA:RNA)
RNA: B1 RNA with A27C, C29G, G30A, A31U
DNA 1: CAATCTGAATTCCGGTCTCCC
DNA 2: TGGTGGCTACGACGGGATT

Numbering of substitutions follows the chain as printed; changes in the protein carry UniProt numbers. The list shows a part of the results.

For this test, the target named is T1, RBFOX1 RRM RbFoxmut (Fox-RRM*) (Homo sapiens, UniProt Q9NWB1 109-208, R118D;E147R;N151S;E152T).
T1 sequence: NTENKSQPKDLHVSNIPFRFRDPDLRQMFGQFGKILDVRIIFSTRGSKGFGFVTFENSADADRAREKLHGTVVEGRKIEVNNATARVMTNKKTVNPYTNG
Nature of the test: EMSA; HiTS-Eq, 1 nM pool, 10 min; buffer printed only for the single-RNA assays: 10 mM Tris pH 7.5, 150 mM NaCl, 3.4 mM EDTA, 0.001% NP-40, 30 C. The following applies: tags: His6 N-terminal (pET28a); label: 5' 32P. The method, boiled down: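 Relative association constants, normalised to the cognate motif, were derived by comparing read counts of each RNA species with those of the control reaction. The RNA sequenced was the free fraction, separated by 8% native PAGE after a 10 min equilibration in 50 µL of 1 nM 5′-radiolabelled RNA (7 randomized nucleotides) with increasing concentrations of purified wild-type or mutant RbFox RRM.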
Take B1: the binding signal was 0.148 KA relative to UGCAUGU. As for B2, the figure is 0.0698 KA relative to UGCAUGU; as for B3, 0.0936 KA relative to UGCAUGU; as for B4, 0.117 KA relative to UGCAUGU. In the case of B5, the binding signal was 0.0584 KA relative to UGCAUGU. As for B6, the figure is 0.0923 KA relative to UGCAUGU; as for B7, 0.122 KA relative to UGCAUGU. For B8, the binding signal was 0.173 KA relative to UGCAUGU. For the molecule B9, the binding signal is 0.107 KA relative to UGCAUGU.

Regarding B10, the binding signal is 0.0956 KA relative to UGCAUGU. As for B11, the figure is 0.035 KA relative to UGCAUGU; as for B12, 0.118 KA relative to UGCAUGU; as for B13, 0.0919 KA relative to UGCAUGU. Take B14: the binding signal is 0.106 KA relative to UGCAUGU. As for B15, the figure is 0.0647 KA relative to UGCAUGU; as for B16, 0.0726 KA relative to UGCAUGU. As for B17, the figure is 0.113 KA relative to UGCAUGU. As for B18, the figure is 0.121 KA relative to UGCAUGU; as for B19, 0.0957 KA relative to UGCAUGU; as for B20, 0.0892 KA relative to UGCAUGU.
